Article PMC9569496
These are yes or no findings as the source states them, for the method shown. Binding seen in cells or lysates may run through a third protein. Some results given as binding are weak or reduced against the parent protein; the word gives no strength.

Protein sequences, listed by entry. Tags and fused reporters are not part of them.
UniProt P51946: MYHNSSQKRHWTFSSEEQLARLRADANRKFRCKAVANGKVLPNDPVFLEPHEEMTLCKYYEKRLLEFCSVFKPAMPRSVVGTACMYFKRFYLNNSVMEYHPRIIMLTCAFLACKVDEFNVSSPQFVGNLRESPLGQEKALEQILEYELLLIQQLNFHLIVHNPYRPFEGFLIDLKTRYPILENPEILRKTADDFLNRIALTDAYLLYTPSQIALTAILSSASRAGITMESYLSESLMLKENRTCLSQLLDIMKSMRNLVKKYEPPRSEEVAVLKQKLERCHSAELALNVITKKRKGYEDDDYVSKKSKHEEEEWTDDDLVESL
UniProt O60563: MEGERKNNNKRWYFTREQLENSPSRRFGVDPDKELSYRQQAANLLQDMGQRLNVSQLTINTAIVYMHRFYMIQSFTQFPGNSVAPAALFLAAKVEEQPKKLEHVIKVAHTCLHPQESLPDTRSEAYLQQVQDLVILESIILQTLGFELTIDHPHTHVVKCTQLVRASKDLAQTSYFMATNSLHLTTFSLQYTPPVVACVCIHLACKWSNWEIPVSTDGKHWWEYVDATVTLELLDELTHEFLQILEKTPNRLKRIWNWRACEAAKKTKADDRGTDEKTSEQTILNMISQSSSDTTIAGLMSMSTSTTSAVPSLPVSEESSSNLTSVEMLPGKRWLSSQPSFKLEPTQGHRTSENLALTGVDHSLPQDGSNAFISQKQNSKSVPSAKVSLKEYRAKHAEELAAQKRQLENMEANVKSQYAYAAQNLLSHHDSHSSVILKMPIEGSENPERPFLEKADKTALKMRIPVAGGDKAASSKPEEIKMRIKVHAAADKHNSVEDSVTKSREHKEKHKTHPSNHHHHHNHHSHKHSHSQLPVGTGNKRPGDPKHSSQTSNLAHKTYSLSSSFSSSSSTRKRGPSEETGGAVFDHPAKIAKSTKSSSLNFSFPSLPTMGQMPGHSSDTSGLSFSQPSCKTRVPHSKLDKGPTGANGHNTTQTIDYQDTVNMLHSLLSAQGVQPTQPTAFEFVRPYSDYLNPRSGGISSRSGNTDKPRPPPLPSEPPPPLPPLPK

Key:
[1] = target: human cyclin H (human (endogenous in HFFs)) (UniProt P51946); assay: co-IP; HFFs in T175 flasks infected with HCMV AD169 WT or ORF-UL97 deletion mutants, lysed 4 d.p.i.; cyclins H and T1 immunoprecipitated with specific antibodies, pUL97 detected by Western blot; chicken Fc fragment as negative control
[2] = target: human cyclin T1 (human (endogenous in HFFs)) (UniProt O60563); assay: as above
[3] = target: human cyclin T1 (human (endogenous in HFFs)) (UniProt O60563); assay: co-IP; HFFs in T75 flasks infected with HCMV AD169 WT or UL97 point mutants, harvested 4-7 d.p.i.; cyclins T1, H, B1 immunoprecipitated with specific antibodies, pUL97 detected by Western blot; chicken Fc fragment as specificity control

HCMV pUL97 Δ236-275 (AD169-GFP ORF-UL97 deletion mutant) (from UniProt P16788 1-707) (enzyme)
binding [1]: no binding | binding [2]: no binding

HCMV pUL97 Δ251-260 (AD169-GFP ORF-UL97 deletion mutant) (from UniProt P16788 1-707) (enzyme)
binding [1]: binds | binding [2]: binds

HCMV protein kinase pUL97, strain AD169 wild type (from UniProt P16788 1-707) (enzyme)
binding [2]: binds | binding [3]: binds

HCMV pUL97 Δ246-265 (AD169-GFP ORF-UL97 deletion mutant) (from UniProt P16788 1-707) (enzyme)
binding [1]: binds | binding [2]: binds

HCMV pUL97 Δ231-280 (AD169-GFP ORF-UL97 deletion mutant) (from UniProt P16788 1-707) (enzyme)
binding [1]: no binding | binding [2]: no binding

HCMV pUL97 Δ241-270 (AD169-GFP ORF-UL97 deletion mutant) (from UniProt P16788 1-707) (enzyme)
binding [1]: binds | binding [2]: binds
